Over roughly 33,000 sequences, “E-score (-0.5 to 0.5)” has its median near -0.04; the highest 2% begin near 0.36. The list shows a part of the results.

Results on 86 sequences are retold here after the supplement of paper PMC3334620.

The assay concerns the target T1, Hmlalpha2 (UniProt P0CY09).
T1 sequence: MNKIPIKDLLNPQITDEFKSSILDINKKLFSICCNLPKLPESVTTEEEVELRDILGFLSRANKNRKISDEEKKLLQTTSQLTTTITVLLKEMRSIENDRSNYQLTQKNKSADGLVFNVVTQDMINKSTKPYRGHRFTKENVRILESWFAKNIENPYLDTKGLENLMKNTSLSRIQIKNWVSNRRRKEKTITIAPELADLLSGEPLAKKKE
As to the kind of experiment: PBM E-score (8-mer binding enrichment) (E-score (-0.5 to 0.5)); higher = stronger / more preferred TF binding; most listed sequences are background and not binding sites. The conditions noted are these: protein concentration: 200 nM; construct: GST-full length. On the procedure: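 Universal 'all 10-mer' protein binding microarrays (Agilent AMADID 015681) probed with GST-tagged S. cerevisiae TFs (full-length or DBD) made by in vitro transcription/translation (PURExpress), about 100-200 nM. Bound TF was detected with fluorescent anti-GST. Each ungapped 8-mer (which stands for itself and its reverse complement) is scored by the PBM enrichment score (E-score), a modified Wilcoxon-Mann-Whitney statistic from -0.5 to +0.5, computed with the Universal PBM Analysis Suite. Scale: above 0.35 generally sequence-specific binding.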
For the sequence AACACTTG, the “PBM E-score” value was -0.00058.

As to GCCTACAA, the “PBM E-score” value came to 0.0587. Take CCCCGAGA: the “PBM E-score” value is -0.19. Consider TCGAGGAA, for which the “PBM E-score” value was -0.16. Under CGTCCGCA stands -0.0892; under ACGTTTCC, -0.104; under GATGATTA, 0.116. For CGCTCCAA, the “PBM E-score” value is -0.172. Consider CGCTCGTC, for which the “PBM E-score” value was -0.0431.

ACTGCACG: the “PBM E-score” value was -0.0728. Consider ACGATGAC, for which the “PBM E-score” value was -0.0158.

Take CGCGTCCG: the “PBM E-score” value was -0.00458.

GCCCGACA: the “PBM E-score” value is 0.0499. For the sequence AACCGATG, the “PBM E-score” value stood at 0.0411. For the sequence CCAAGATC, the “PBM E-score” value is -0.171. Under ATCTTCCC stands -0.0479; under AATGAGCC, -0.243. Take AAATGTCT: the “PBM E-score” value was -0.0122. As for GTCAATCA, the “PBM E-score” value is 0.0776. Regarding AAAGCTGC, the “PBM E-score” value was -0.0259. Regarding ACCGGGCA, the “PBM E-score” value was -0.281. Turning to ATGCCTCG, the “PBM E-score” value was 0.114. Take AACGGTGG: the “PBM E-score” value is -0.182. Regarding AGAAGCTC, the “PBM E-score” value is -0.0869.

On to CATAAGAG, for which the “PBM E-score” value is -0.0846. Under CATGCAGC stands -0.105; under AGAGAGGG, -0.286; under GGAGTGCC, -0.262. In the case of AAATATAC, the “PBM E-score” value was found to be 0.0539. Take CGTATGGA: the “PBM E-score” value was -0.143. For CGACCAAA, the “PBM E-score” value is 0.128. In the case of GTTCTCCA, the “PBM E-score” value was -0.0609. On to AACTAGTT, for which the “PBM E-score” value was found to be 0.188.

Turning to CCATATAG, the “PBM E-score” value is -0.192. Under TAGGTGGA stands -0.0803. Take GGATCATA: the “PBM E-score” value was -0.23. With ATATACCA, the “PBM E-score” value is -0.0254.

With ATTAATGG, the “PBM E-score” value came to 0.216. Regarding GCTGAGTA, the “PBM E-score” value is -0.0231. GGCTAACA: the “PBM E-score” value turned out to be 0.237. ACTCGTAC: the “PBM E-score” value is -0.0659. In the case of ATACCGAC, the “PBM E-score” value was -0.0528. On to ATTAACTA, for which the “PBM E-score” value turned out to be 0.173. As for CCAACTGG, the “PBM E-score” value was -0.186. As to CCCTTAAG, the “PBM E-score” value was determined as 0.0728. Regarding AGTCTATC, the “PBM E-score” value was -0.0461. Consider CCCCGATA, for which the “PBM E-score” value was -0.147. Under CTCGTGGC stands -0.118. Under GGTGAACC stands -0.0688; under CCGGTGTA, 0.125. In the case of AGTTAGAA, the “PBM E-score” value is -0.0438. Turning to CCTAAGTA, the “PBM E-score” value was 0.0626. Under AACGGCCT stands -0.274. CTAAAAGA: the “PBM E-score” value was -0.0239. Take AATAACGC: the “PBM E-score” value worked out at 0.258. On to GCTTATCA, for which the “PBM E-score” value is 0.00712. As for ATCCGATC, the “PBM E-score” value is 0.0732.

ACAACATC: the “PBM E-score” value was determined as 0.263. With TATATTGA, the “PBM E-score” value is -0.00917. Under CTATGTAA stands 0.485; under ATCGAATG, -0.025. With CGATCCAA, the “PBM E-score” value is -0.135. For the sequence AGCACTAT, the “PBM E-score” value amounted to 0.104. Regarding GCAACGTA, the “PBM E-score” value came to 0.134.

For GAGGAGTA, the “PBM E-score” value was -0.00994. With CACACTTA, the “PBM E-score” value was found to be 0.104. Consider AGGCCTGA, for which the “PBM E-score” value is -0.218. In the case of AGTGGCTG, the “PBM E-score” value was -0.219. As for ACGTTCAT, the “PBM E-score” value turned out to be 0.21. Consider AAGAATCT, for which the “PBM E-score” value was 0.0109. With GGGCCAGA, the “PBM E-score” value is -0.227. Regarding GACACCCA, the “PBM E-score” value is -0.174. Consider GATCTCCA, for which the “PBM E-score” value was -0.15. ACTCTTAG: the “PBM E-score” value came to 0.0286. Regarding GATATCGA, the “PBM E-score” value was -0.0694.

As to ATCCGCCA, the “PBM E-score” value was -0.173. Under GAACCAAC stands 0.0452; under GATACGAC, -0.0691. With AGGTCGAT, the “PBM E-score” value is -0.0724. For GGCTTCCC, the “PBM E-score” value is -0.257. Regarding GTGCCTTA, the “PBM E-score” value was -0.08. As for GTTTAACA, the “PBM E-score” value was 0.41. Regarding AGTACCTC, the “PBM E-score” value is -0.0573. As to GAACAGGA, the “PBM E-score” value was found to be 0.0327.

Regarding AGTGATAC, the “PBM E-score” value was -0.0724. On to ATGTCTAA, for which the “PBM E-score” value is 0.255.
